This passage reports binding signal (RPM ratio (pull-down/input)) results from publication PMC12820563.

Some of the results follow. The list includes weakly bound sequences.

The target of this assay is T1, MBP-FoxP3dN (UniProt Q99JB6).
T1 sequence: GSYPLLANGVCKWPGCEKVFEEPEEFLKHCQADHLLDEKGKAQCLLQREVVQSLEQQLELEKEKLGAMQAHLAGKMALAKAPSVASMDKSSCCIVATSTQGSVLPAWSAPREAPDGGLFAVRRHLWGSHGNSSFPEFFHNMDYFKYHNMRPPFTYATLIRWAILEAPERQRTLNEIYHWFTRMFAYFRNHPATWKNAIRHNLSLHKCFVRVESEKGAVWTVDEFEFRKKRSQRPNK
The assay is described as follows: PD-seq (MBP pull-down with sequencing). The following applies: 20 mM Tris-HCl pH 7.5, 100 mM NaCl, 1.5 mM MgCl2, 0.4 uM protein, 0.1 uM dsDNA library, 30 min, room temperature, amylose pull-down; high values mean tight binding; double strand, one strand shown.
“GATGATTGTTCTCCCAGCTGATGAATTAGTCGTTTCGAGTAAACAAATTTTCCTAATCTTTCTGTTCAAGCGCCATCTAC”: the binding signal (RPM ratio (pull-down/input)) is 1.8.

“GATGATTGTTCTCCCAGCTGATGAATTGCATGCCTCGAGTAAACAAATTTTCCTAATCTTTCTGTTCAAGCGCCATCTAC”: the binding signal (RPM ratio (pull-down/input)) turned out to be 2.23.

For “GATGATTGTTCTCCCAGCTGATGAATTCTTGGCCTCGAGTAAACAAATTTTCCTAATCTTTCTGTTCAAGCGCCATCTAC”, the binding signal (RPM ratio (pull-down/input)) is 0.318.

On to “GATGATTGTTCTCCCAGCTGATGAATTGACGCGATCGAGTAAACAAATTTTCCTAATCTTTCTGTTCAAGCGCCATCTAC”, for which the binding signal (RPM ratio (pull-down/input)) came out at 0.796.

For “GATGATTGTTCTCCCAGCTGATGAATTGAGATTCTCGAGTAAACAAATTTTCCTAATCTTTCTGTTCAAGCGCCATCTAC”, the binding signal (RPM ratio (pull-down/input)) was 0.554.

As for “GATGATTGTTCTCCCAGCTGATGAATTGTCTGCGTCGAGTAAACAAATTTTCCTAATCTTTCTGTTCAAGCGCCATCTAC”, the binding signal (RPM ratio (pull-down/input)) turned out to be 0.546.

Turning to “GATGATTGTTCTCCCAGCTGATGAATTCCAAGACTCGAGTAAACAAATTTTCCTAATCTTTCTGTTCAAGCGCCATCTAC”, the binding signal (RPM ratio (pull-down/input)) worked out at 0.25.

Regarding “GATGATTGTTCTCCCAGCTGATGAATTCGTAACATCGAGTAAACAAATTTTCCTAATCTTTCTGTTCAAGCGCCATCTAC”, the binding signal (RPM ratio (pull-down/input)) is 0.745.

Turning to “GATGATTGTTCTCCCAGCTGATGAATTTCGGTCTTCGAGTAAACAAATTTTCCTAATCTTTCTGTTCAAGCGCCATCTAC”, the binding signal (RPM ratio (pull-down/input)) is 0.446.

For “GATGATTGTTCTCCCAGCTGATGAATTCATAGCTTCGAGTAAACAAATTTTCCTAATCTTTCTGTTCAAGCGCCATCTAC”, the binding signal (RPM ratio (pull-down/input)) worked out at 0.449.

Regarding “GATGATTGTTCTCCCAGCTGATGAATTCAATTGCTCGAGTAAACAAATTTTCCTAATCTTTCTGTTCAAGCGCCATCTAC”, the binding signal (RPM ratio (pull-down/input)) worked out at 2.31.

For the sequence “GATGATTGTTCTCCCAGCTGATGAATTGGGCGTGTCGAGTAAACAAATTTTCCTAATCTTTCTGTTCAAGCGCCATCTAC”, the binding signal (RPM ratio (pull-down/input)) stood at 2.76.

“GATGATTGTTCTCCCAGCTGATGAATTCCCCTCTTCGAGTAAACAAATTTTCCTAATCTTTCTGTTCAAGCGCCATCTAC”: the binding signal (RPM ratio (pull-down/input)) worked out at 0.259.

“GATGATTGTTCTCCCAGCTGATGAATTCGTTACGTCGAGTAAACAAATTTTCCTAATCTTTCTGTTCAAGCGCCATCTAC”: the binding signal (RPM ratio (pull-down/input)) worked out at 0.727.

On to “GATGATTGTTCTCCCAGCTGATGAATTGAATTCCTCGAGTAAACAAATTTTCCTAATCTTTCTGTTCAAGCGCCATCTAC”, for which the binding signal (RPM ratio (pull-down/input)) amounted to 0.478.

With “GATGATTGTTCTCCCAGCTGATGAATTATGTGAATCGAGTAAACAAATTTTCCTAATCTTTCTGTTCAAGCGCCATCTAC”, the binding signal (RPM ratio (pull-down/input)) was found to be 0.607.

Take “GATGATTGTTCTCCCAGCTGATGAATTATGGTGATCGAGTAAACAAATTTTCCTAATCTTTCTGTTCAAGCGCCATCTAC”: the binding signal (RPM ratio (pull-down/input)) stood at 0.759.

Turning to “GATGATTGTTCTCCCAGCTGATGAATTCACCAATTCGAGTAAACAAATTTTCCTAATCTTTCTGTTCAAGCGCCATCTAC”, the binding signal (RPM ratio (pull-down/input)) worked out at 0.272.

Consider “GATGATTGTTCTCCCAGCTGATGAATTGACTATTTCGAGTAAACAAATTTTCCTAATCTTTCTGTTCAAGCGCCATCTAC”, for which the binding signal (RPM ratio (pull-down/input)) came out at 0.498.

With “GATGATTGTTCTCCCAGCTGATGAATTTCGATGGTCGAGTAAACAAATTTTCCTAATCTTTCTGTTCAAGCGCCATCTAC”, the binding signal (RPM ratio (pull-down/input)) amounted to 0.782.

“GATGATTGTTCTCCCAGCTGATGAATTCACCGTTTCGAGTAAACAAATTTTCCTAATCTTTCTGTTCAAGCGCCATCTAC”: the binding signal (RPM ratio (pull-down/input)) worked out at 0.387.

Turning to “GATGATTGTTCTCCCAGCTGATGAATTACGGGGATCGAGTAAACAAATTTTCCTAATCTTTCTGTTCAAGCGCCATCTAC”, the binding signal (RPM ratio (pull-down/input)) stood at 0.327.

For the sequence “GATGATTGTTCTCCCAGCTGATGAATTTGATCGGTCGAGTAAACAAATTTTCCTAATCTTTCTGTTCAAGCGCCATCTAC”, the binding signal (RPM ratio (pull-down/input)) stood at 0.32.

As for “GATGATTGTTCTCCCAGCTGATGAATTGGGGGCATCGAGTAAACAAATTTTCCTAATCTTTCTGTTCAAGCGCCATCTAC”, the binding signal (RPM ratio (pull-down/input)) stood at 0.87.

On to “GATGATTGTTCTCCCAGCTGATGAATTAAATGTGTCGAGTAAACAAATTTTCCTAATCTTTCTGTTCAAGCGCCATCTAC”, for which the binding signal (RPM ratio (pull-down/input)) was found to be 1.18.

Consider “GATGATTGTTCTCCCAGCTGATGAATTCGTGGTATCGAGTAAACAAATTTTCCTAATCTTTCTGTTCAAGCGCCATCTAC”, for which the binding signal (RPM ratio (pull-down/input)) turned out to be 1.14.

Regarding “GATGATTGTTCTCCCAGCTGATGAATTCGAACTCTCGAGTAAACAAATTTTCCTAATCTTTCTGTTCAAGCGCCATCTAC”, the binding signal (RPM ratio (pull-down/input)) was 0.359.

Regarding “GATGATTGTTCTCCCAGCTGATGAATTGAGAGAGTCGAGTAAACAAATTTTCCTAATCTTTCTGTTCAAGCGCCATCTAC”, the binding signal (RPM ratio (pull-down/input)) stood at 0.249.

As for “GATGATTGTTCTCCCAGCTGATGAATTTTCAAAGTCGAGTAAACAAATTTTCCTAATCTTTCTGTTCAAGCGCCATCTAC”, the binding signal (RPM ratio (pull-down/input)) is 0.204.

Turning to “GATGATTGTTCTCCCAGCTGATGAATTTACCACTTCGAGTAAACAAATTTTCCTAATCTTTCTGTTCAAGCGCCATCTAC”, the binding signal (RPM ratio (pull-down/input)) worked out at 0.564.

Regarding “GATGATTGTTCTCCCAGCTGATGAATTCGGCGTCTCGAGTAAACAAATTTTCCTAATCTTTCTGTTCAAGCGCCATCTAC”, the binding signal (RPM ratio (pull-down/input)) worked out at 3.54.
